Measurements published in the supplement of paper PMC3334620.
In all, about 33,000 sequences were measured (“E-score (-0.5 to 0.5)”: median about -0.043, highest 2% from about 0.37 on). The list shows a part of the results.

target: T1, Upc2 (UniProt Q12151); assay: PBM E-score (8-mer binding enrichment) (E-score (-0.5 to 0.5)); higher = stronger / more preferred TF binding; most listed sequences are background and not binding sites; conditions: protein concentration: 200 nM; construct: GST-full length
T1 sequence: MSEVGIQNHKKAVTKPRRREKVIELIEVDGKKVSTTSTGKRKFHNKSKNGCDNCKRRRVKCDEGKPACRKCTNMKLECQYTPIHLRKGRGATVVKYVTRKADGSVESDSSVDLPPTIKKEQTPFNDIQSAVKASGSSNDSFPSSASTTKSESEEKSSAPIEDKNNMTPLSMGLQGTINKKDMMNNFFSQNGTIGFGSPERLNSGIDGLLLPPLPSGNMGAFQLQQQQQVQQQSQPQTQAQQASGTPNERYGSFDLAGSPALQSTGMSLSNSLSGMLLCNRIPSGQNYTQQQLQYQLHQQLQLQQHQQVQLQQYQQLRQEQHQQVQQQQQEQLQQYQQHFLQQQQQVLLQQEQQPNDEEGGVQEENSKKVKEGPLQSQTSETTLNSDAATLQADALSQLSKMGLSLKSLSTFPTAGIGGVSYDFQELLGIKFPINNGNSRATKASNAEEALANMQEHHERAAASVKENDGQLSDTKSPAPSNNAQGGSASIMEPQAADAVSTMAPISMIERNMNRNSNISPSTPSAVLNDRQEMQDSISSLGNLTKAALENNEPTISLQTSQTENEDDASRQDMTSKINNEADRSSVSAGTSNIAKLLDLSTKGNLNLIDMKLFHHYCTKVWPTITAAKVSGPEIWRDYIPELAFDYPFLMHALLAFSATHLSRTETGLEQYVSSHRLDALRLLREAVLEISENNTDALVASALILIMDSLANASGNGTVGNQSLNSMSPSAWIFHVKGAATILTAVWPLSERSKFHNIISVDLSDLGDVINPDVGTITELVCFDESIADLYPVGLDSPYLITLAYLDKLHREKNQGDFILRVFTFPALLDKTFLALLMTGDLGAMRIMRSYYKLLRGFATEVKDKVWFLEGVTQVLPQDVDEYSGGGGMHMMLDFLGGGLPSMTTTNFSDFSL
Outline: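 Universal all-10-mer Agilent arrays, fresh or stripped once, were converted to double-stranded form by primer extension. GST-tagged yeast transcription factors from PURExpress in vitro transcription/translation, full-length or DNA-binding domain only, were applied at about 100-200 nM and detected with fluorescent anti-GST. After masliner normalisation, the Universal PBM Analysis Suite scored each ungapped eight-base word together with its reverse complement by E-score.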

Sequence | PBM E-score
GCGCAGGA | -0.149
CCTTACCC | -0.184
AAAGCTTG | 0.139
GGGTTCTA | -0.194
AAAAGCCC | -0.219
AGTGAGGA | -0.0674
TTAACTAA | 0.0891
AACCTGGG | -0.262
GCAAAGTA | 0.0637
TCCCCACA | -0.394
AAGGTTGT | -0.213
CCCGCACA | 0.13
GCTTCCAA | -0.0831
ACGGATCA | 0.115
CCGGTATA | 0.266
AAATTCTA | 0.035
GCTTTGCC | -0.205
AGCGGCGA | 0.0126
AGTCAATA | -0.111
AAAGGCGA | 0.048
GGCGCTAC | -0.0337
ACACGGTG | -0.0718
CGGATCGA | 0.0496
CCAACCCA | -0.236
ATTCAGGC | 0.0405

Sequence | PBM E-score
CCACGGTC | -0.176
ACGACCAT | 0.355
AGGTCAAT | -0.0612
GTGCATCA | -0.0319
AGAGCGTC | 0.0902
GGCAGCTA | -0.107
AAGGCAGG | -0.367
AACGTGAG | -0.0661
CAGCCAAC | -0.176
CTATATAA | -0.0174
AATATTCT | 0.0301
CAGAACTG | 0.164
AGCGGTAT | 0.0777
CGGACCCA | -0.078
ATTCCTAG | -0.257
ACGGCTTG | 0.0582
CGGTGTGC | -0.123
ACTGTACA | 0.133
TAAAAAAA | 0.0499
GGTTGAGA | -0.183
TATCTGGA | -0.156
ACTTCTAC | 0.00587
CGCCGACA | 0.0133
CACGCCGC | -0.142
AGCGTGTC | -0.117

Sequence | PBM E-score
ACCAGGAT | -0.0837
CCTCCGGC | -0.0747
CTATATGA | 0.0471
TCCTGACA | -0.183
ACACCAAT | -0.051
ATTATAGG | -0.029
AAACCAAC | -0.161
CAAGTGCA | -0.255
AATTACAC | -0.0651
GCAATTAC | -0.0538
TAATCAAA | -0.0608
AAACCTAT | -0.131
CAATAAGG | -0.351
ACTGACCA | 0.00146
ATGGCGGC | -0.257
CCTCTACG | 0.317
GCAGATCA | -0.161
ATACATTG | -0.0164
ATGTAGGC | -0.255
AGGCAACA | -0.253
AGGCGGAA | -0.0749
GGGCGGTA | -0.0676
TCGCACAA | 0.182
TCGCTGAA | 0.143
ATAAGTGG | 0.00439

Sequence | PBM E-score
AACGTGCG | 0.229
CTACTTCA | -0.188
CGCACCAC | -0.136
CGAATTAG | 0.0301
GCGGACTA | -0.0999
CACCTTCG | 0.051
GGGTATAC | 0.255
ATACTACG | 0.113
CAGCCATC | -0.0262
AGCGGGCG | 0.0149
CAGGTCGG | -0.193
ACCACTTA | 0.0727
GCAGGAGA | -0.102
CTATCCGC | 0.204
GACCCAGC | -0.145
CTTATTGA | -0.104
AATTAAAC | 0.275
CAAAGTAC | 0.151
CACGAATA | 0.175
AGGCTTAG | -0.0922
GCAAGGAA | -0.0986
ACCCGTAT | 0.396
GCGTCTAC | 0.00637
AGATTCTA | 0.111
AACAACAC | -0.09

Sequence | PBM E-score
AAGAGACT | -0.0974
CCATTCGG | -0.0319
CTCGGTAA | 0.232
AGATATCT | -0.353
AGATGGGC | -0.192
TAGTAATA | -0.0623
ACTACCAT | 0.053
ACTAGGGA | -0.056
AAGCTTAT | -0.0584
CGAACCCG | 0.171
CAATAGGA | -0.183
ACAAACGC | 0.225
ACGCCGAA | 0.221
CGAAACCA | 0.201
ACCGATAT | 0.0732
CATCAATA | 0.0679
AACATTAC | -0.194
CGCGAAAC | 0.137
CGTACGTA | 0.364
AGCGCAGA | -0.0537
GTTAAGTA | 0.0459
CTCATATA | -0.0874
CGCATCCC | 0.0259
AATATCGA | -0.118
CAGCCGAA | -0.101

Sequence | PBM E-score
CACGGGAG | -0.163
ACGGGCCT | 0.078
CGCCGGTA | 0.0435
AAACTATT | -0.0103
GATCCGGC | -0.0848
CTGATGCA | -0.163
ATGAATCC | -0.0932
GCATTCCA | -0.123
ATGGTGAA | -0.0469
AAAACTAA | 0.109
ACCAATTC | -0.113
CGGCTCCA | -0.143
ATTCCGCC | -0.136
CAAACAGA | -0.0761
CCAGTGCG | -0.0422
CATGTTGC | -0.0436
ATCTTTAG | -0.079
CCACTCGG | 0.0488
TATACGCA | 0.449
AGTCGCGC | 0.0136
CCGATGAC | -0.0589
CGTCCTGC | -0.214
CGATGACC | 0.198
ACAGCGAT | 0.0232
AATAAGGT | -0.0384

Sequence | PBM E-score
ATGATAAG | -0.088
ACAAGCGT | 0.0145
ATCTAGGA | -0.0379
GACGCCGC | -0.0285
ACCCGGCA | -0.0931
CCGCAATA | -0.0199
CAACAAAG | -0.00411
ACAGTACG | 0.289
GATACGAA | 0.454
ATACGTTC | 0.342
CAAATCGA | 0.0385
GGTGCTTA | -0.0437
ACTCTATC | -0.123
CGTTTGAA | 0.35
CGTACGAG | 0.465
GCGTGAAC | 0.178
AAGGTGGC | -0.0337
CTATGAAG | -0.114
ATGCGCAT | 0.0386
CGATGAGC | 0.0788
AATAGTAC | 0.168
ATCGGGCG | -0.11
